Whole data set: some 33,000 sequences, median “E-score (-0.5 to 0.5)” near -0.043, cut for the highest 2% near 0.37. This is one part of the list.
molecular target: T1, Upc2 (UniProt Q12151); test: PBM E-score (8-mer binding enrichment) (E-score (-0.5 to 0.5)); higher = stronger / more preferred TF binding; most listed sequences are background and not binding sites; conditions: protein concentration: 200 nM; construct: GST-full length
T1 sequence: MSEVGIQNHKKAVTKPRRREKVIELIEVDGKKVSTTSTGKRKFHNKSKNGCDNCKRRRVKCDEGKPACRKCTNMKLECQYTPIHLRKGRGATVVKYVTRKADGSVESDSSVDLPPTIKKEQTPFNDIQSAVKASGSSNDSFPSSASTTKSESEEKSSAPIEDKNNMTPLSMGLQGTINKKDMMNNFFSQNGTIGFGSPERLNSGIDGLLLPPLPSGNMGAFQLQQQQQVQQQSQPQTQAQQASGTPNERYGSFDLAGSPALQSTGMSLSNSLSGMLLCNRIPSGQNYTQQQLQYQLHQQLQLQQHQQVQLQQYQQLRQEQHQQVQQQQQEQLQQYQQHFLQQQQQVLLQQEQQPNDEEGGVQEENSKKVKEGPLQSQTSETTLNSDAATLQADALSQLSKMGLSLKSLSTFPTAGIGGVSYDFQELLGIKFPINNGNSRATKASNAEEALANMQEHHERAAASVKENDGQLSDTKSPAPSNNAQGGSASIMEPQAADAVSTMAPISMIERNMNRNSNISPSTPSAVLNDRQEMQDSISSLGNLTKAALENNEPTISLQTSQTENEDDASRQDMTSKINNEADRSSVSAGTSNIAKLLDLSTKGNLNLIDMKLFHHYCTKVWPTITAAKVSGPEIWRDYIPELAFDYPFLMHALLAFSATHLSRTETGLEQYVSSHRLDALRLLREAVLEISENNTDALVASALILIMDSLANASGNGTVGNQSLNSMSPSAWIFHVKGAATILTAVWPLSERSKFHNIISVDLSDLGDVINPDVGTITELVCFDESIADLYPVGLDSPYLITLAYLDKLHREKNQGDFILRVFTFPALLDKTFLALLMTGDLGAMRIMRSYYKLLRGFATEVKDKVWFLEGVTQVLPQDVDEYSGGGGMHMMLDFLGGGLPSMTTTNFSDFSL
Procedure, shortened: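 Bound GST-tagged yeast transcription factors, applied at about 100-200 nM to double-stranded universal all-10-mer Agilent arrays, were detected with fluorescent anti-GST. Scans were normalised with masliner. A modified Wilcoxon-Mann-Whitney statistic, the E-score, was assigned to each ungapped eight-base word pooled with its reverse complement by the Universal PBM Analysis Suite.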

Sequence | PBM E-score
AGGAGGCC | -0.196
GAATATAA | -0.013
CGGTAATA | -0.0285
CCTCTCCG | -0.305
AGTGACAA | -0.0211
AGTAGGCA | -0.067
ACGACTCG | 0.381
TCACGACA | -0.138
TTACGAAA | 0.41
AAGCCATT | 0.0665
AACTATTG | -0.208
AGTAACCC | 0.0454
CCCAAAGC | -0.0599
CAGGTAAC | -0.0313
CGTATCTA | 0.315
ACAGAAAC | 0.0673
CCCTCAAC | -0.0664
CGATATCG | 0.244
AGATGAGG | -0.247
AGGAGTGC | -0.126
GAAACCTC | 0.0387
AAGAAAGA | -0.0388

Sequence | PBM E-score
CTAGAAAC | -0.0776
GGTGCCGA | -0.141
ACGGTCGG | 0.23
TGATCGCA | -0.0419
ATCTGACA | -0.26
AGCTCTCG | 0.236
CCATGTAG | -0.267
AATGCCCT | -0.198
GGTTCTCA | -0.0314
CACTTCGG | -0.0606
AGTGGCAG | -0.308
ATTATATG | -0.0794
CTCAATGA | -0.233
CCCCGTAG | 0.0355
CGTGCGAC | 0.14
TAGGACCA | -0.175
CATCCAAA | 0.0148
GTCCGGGA | -0.0586
ATAATTCC | -0.0203
ACCTACCC | 0.0163
ATCTCACA | -0.155
CCAATATC | -0.149

Sequence | PBM E-score
CCTCACGA | -0.219
TGCGAAAA | 0.0864
TAACATTA | 0.0099
AGCAAAGC | -0.229
CCAGCCAC | -0.133
ATTATTGA | -0.157
GAGCCTAC | -0.254
ATGAAACG | 0.206
CCCCGTAA | 0.308
GAAAAGTC | 0.0928
AAGAGAGG | -0.149
AAATGTTG | -0.0204
TACATGGA | -0.101
AGAATGCT | -0.215
CCTCTCAG | -0.352
GACTCCGC | -0.153
GGCGCTAA | -0.151
CTTTGCAA | -0.0879
ACCGGAAC | 0.171
ACCCGTTG | -0.231
AGACGTTG | 0.0271
AGTAGTTC | -0.0348

Sequence | PBM E-score
CAAGCGCC | -0.157
CACAGGAC | -0.264
AGGGTTGC | -0.0148
ACTTTAGG | -0.0353
AAATCGAT | -0.00745
GTCGGGCA | -0.287
ACCTAGAG | 0.0197
AATTAATA | 0.0716
ATAATATA | 0.114
ATCACGTG | 0.0327
CGCTCCAG | 0.149
GAGTGCGC | -0.117
ATATGATA | 0.104
TCAGAGCA | -0.0899
AAATTCCA | -0.124
GCACGGCA | -0.1
GGGAGGTA | 0.132
ACTCAAAT | 0.0429
ACAACAAC | 0.0996
GACTTAAC | 0.00959
